In assay [1] the target is human Peroxisome Proliferator-activated Receptor alpha (PPARa), PPARA (gene 5465) (UniProt Q07869). In words: ATG_PPARa_TRANS: Attagene TRANS-FACTORIAL HepG2 Assay for human Peroxisome Proliferator-activated Receptor alpha (PPARa) (AID 2283001). A digest of the protocol:
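Cells (HepG2) are transfected with multiple reporter transcription units, exposed to chemical for 24 h, then total RNA is reverse-transcribed and amplified. Labelled products are quantified by capillary electrophoresis; induction is referenced to DMSO.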

Assay [2] concerns the target human Peroxisome Proliferator-activated Receptor delta (PPARd), PPARD (gene 5467) (UniProt Q03181). In words: ATG_PPARd_TRANS: Attagene TRANS-FACTORIAL HepG2 Assay for human Peroxisome Proliferator-activated Receptor delta (PPARd) (AID 2283002). A digest of the protocol: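 Measured quantity: GAL4-UAS reporter transcript induction in HepG2 after 24 h chemical dosing, with NR-Gal4 chimeras supplied by transient transfection. Detection by RT-PCR and capillary electrophoresis; upward fit against DMSO.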

Assay [3] deals with human Thyroid Receptor alpha (THRa1), THRA (gene 7067) (UniProt P10827). Description: ATG_THRa1_TRANS: Attagene TRANS-FACTORIAL HepG2 Assay for human Thyroid Receptor alpha (THRa1) (AID 2283014). The essentials: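 Transient HepG2 transfection, NR-Gal4 chimera driving GAL4-UAS reporters; 24 h compound exposure; total RNA, oligo(dT) RT, PCR, fluorescent primer extension, capillary electrophoresis. Upward direction vs DMSO control.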

Assay [4] concerns the target Cellular tumor antigen p53 (Homo sapiens) (UniProt P04637). In words: TOX21_p53_BLA_p2_ratio: Tox21 HCT-116 p53 Agonism Beta-lactamase Assay, Ratio, Phase 2 (AID 2283592). A digest of the protocol:
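Readout: blue/green (460/530 nm) FRET emission ratio after 2 h CCF4-AM loading at room temperature, excitation 405 nm. HCT116 p53 bla cells, 16 h compound exposure at 37C, 5% CO2; agonist direction fitted against DMSO baseline.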

In assay [5] the test system is Sodium/Iodide Symporter (NIS), SLC5A5 (gene 6528). In words: CPHEA_Stoker_NIS_Inhibition_RAIU: CPHEA's Radioactive Iodide Uptake (RAIU) Assay for Sodium/Iodide Symporter (NIS) Inhibition, Stoker and Laws Labs (AID 2283841). The essentials:
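Iodide uptake read as CPM of intracellular 125I (final 329 pM) after 2 h room-temperature exposure in HEPES-buffered HBSS, pH 7.4. Human NIS-expressing HEK293T cells; six concentrations 0.001–100 uM, 0.5% DMSO, normalised to DMSO wells.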

Assay [6] deals with Retinoic acid receptor alpha (Homo sapiens) (UniProt P10276). Description: ATG_RARa_TRANS: Attagene TRANS-FACTORIAL HepG2 Assay for human Retinoic Acid Receptor alpha (RARa) (AID 2283005). A digest of the protocol: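 HepG2 cells transiently transfected with multiple reporter units expressing chimeric RARα-GAL4 fusion, with GAL4-UAS-driven reporters. After 24 h compound exposure, reporter mRNA induction quantified by RT-PCR and capillary electrophoresis with fluorescent labeling; gain-of-signal fitted relative to DMSO control.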

Assay [7] concerns the target Peroxisome proliferator-activated receptor gamma (Homo sapiens) (UniProt P37231). In words: OT_PPARg_PPARgSRC1_0480: Odyssey Thera (OT) 8-hour Protein-Complementation Assay for Peroxisome Proliferator-activated Receptor Gamma / SRC-1 Co-activator (AID 2283387).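 Note: nuclear to cytoplasmic split Venus YFP fluorescence ratio reporting PPARg SRC-1 interaction.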 A digest of the protocol:
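Protein-fragment complementation of split Venus YFP reports PPARg/SRC-1 interaction in HEK293T (transfected 48 h before treatment), exposed 8 h. Readout: N/C fluorescence ratio at 488 nm from imaging, Draq5 for segmentation, positive fit relative to DMSO.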

Assay [8] shares this target. In words: OT_PPARg_PPARgSRC1_1440: Odyssey Thera (OT) 24-hour Protein-Complementation Assay for Peroxisome Proliferator-activated Receptor Gamma/ SRC-1 Co-activator (AID 2283388).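 Note: nuclear to cytoplasmic ratio of reconstituted Venus YFP fluorescence in fixed imaged cells.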 A digest of the protocol:
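Readout: nuclear-to-cytoplasmic 488 nm fluorescence ratio, ≥350 cells per image, 8 images per well, after 24 h compound exposure of HEK293T expressing PPARg/SRC-1 split-YFP fusions. Activity fitted in positive direction against DMSO.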

Read-out in assay [9]: UDP glucuronosyltransferase (UGT1A6), UGT1A6 (gene 54578)
In words: LTEA_HepaRG_UGT1A6: Life Technologies and Expression Analysis (LTEA) Assay for UDP glucuronosyltransferase (UGT1A6) using HepaRG (AID 2283539; active = hit-call score of the fitted dose curve at least 0.9, where 1 is the maximum; inactive = score below 0.9). Particulars: actives raise or lower the signal; mRNA level, 48 h. A digest of the protocol: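 qRT-PCR readout of UGT1A6 mRNA (normalized to ACTB/GAPDH/POLR2A) in differentiated HepaRG cells after 48 h chemical exposure; 8 concentrations, top 100 uM, half-log steps, 0.5% DMSO. Bidirectional curve fit relative to DMSO baseline.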

Assay [10] deals with human RAR-related Orphan Receptor beta (RORb), RORB (gene 6096) (UniProt Q92753). In words: ATG_RORb_TRANS: Attagene TRANS-FACTORIAL HepG2 Assay for human RAR-related Orphan Receptor beta (RORb) (AID 2283010). A digest of the protocol:
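Read-out is reporter mRNA induction, quantified by RT-PCR with fluorescent capillary electrophoresis, 24 h post-dose in transiently transfected HepG2 expressing exogenous NR-Gal4 chimera. Activity fitted upward versus DMSO.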

Assay [11] deals with human Vitamin D Receptor (VDR), VDR (gene 7421) (UniProt P11473). Description: ATG_VDR_TRANS: Attagene TRANS-FACTORIAL HepG2 Assay for human Vitamin D Receptor (VDR) (AID 2283022). The essentials: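 RT-PCR/capillary electrophoresis read-out of reporter mRNA induction in transiently transfected HepG2; 24 h dosing; chimeric NR-Gal4 (TRANS format); gain-of-signal fit against DMSO baseline.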

Read-out in assay [12]: Cytochrome P450 3A4 (Homo sapiens) (UniProt P08684)
In words: LTEA_HepaRG_CYP3A4: Life Technologies and Expression Analysis (LTEA) Assay for CYP3A4 using HepaRG (AID 2283487; active = hit-call score of the fitted dose curve at least 0.9, where 1 is the maximum; inactive = score below 0.9). Particulars: actives raise or lower the signal; mRNA level, 48 h. A digest of the protocol:
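Differentiated HepaRG cells, plated 48 h, then dosed 48 h in serum-free induction medium with 0.5% DMSO, 8 half-log concentrations up to 100 uM, duplicate. CYP3A4 mRNA by qRT-PCR, normalized to ACTB/GAPDH/POLR2A; bidirectional fit versus DMSO.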

For assay [13], the target named is Estrogen receptor (Homo sapiens) (UniProt P03372). Description: CCTE_Deisenroth_AIME_384WELL_LUC_Active: CCTE's 384-well Estrogen Receptor Transactivation Assay with AIME metabolic competence (ERTA luciferase; metabolism positive), Deisenroth Lab (AID 2284030). The essentials:
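Readout: bioluminescent luciferase induction in VM7Luc4E2 cells 24 hour after receiving medium from a 2 h rat hepatic S9 (induced, alginate microsphere) metabolism step. Concentrations 0.002 - 200 uM; activity scaled to 17beta-estradiol positive control.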

Outcome and AC50 data for 5 compounds are collected here from PubChem BioAssay (EPA / NIEHS).

By AC50 is commonly meant the concentration at which the activity in the assay is half-maximal.

For some assays here: The hits were mostly taken out for another list; the other results follow. Results filed as inconclusive are left out. The list shows a part of the results, in another mix than the full data. Activity calls are given as the source filed them. Rule for the calls, unless noted: active = hit-call score of the fitted dose curve at least 0.9, where 1 is the maximum; inconclusive = response in the unintended direction; inactive = score below 0.9.

As to `CC(Cc1ccc(O)c(O)c1)C(C)Cc1ccc(O)c(O)c1` (configuration not stated), the result in assay [1], in assay [2] and in assay [3] was inactive. Further, the AC50 in [4] is active: 47.3 µM; in assay [5], active: 9.92 µM.

Regarding `Cc1ccc(C)c(O)c1C`, the call in assay [6], in assay [7], in assay [8] and in [9] was inactive.

As for `C=C(c1ccc(C(=O)O)cc1)c1cc2c(cc1C)C(C)(C)CCC2(C)C`, the call in assay [2], in [10] and in assay [11] was inactive.

Consider `[Cl][Bi]([Cl])([c]1ccccc1)([c]1ccccc1)[c]1ccccc1`, for which, in assay [2], the compound was classed as inactive. For the same compound, the AC50 in assay [11] is active: 3.69 µM.

Consider `CCCCCCCC(=O)O`, for which the outcome in [1], in assay [12] and in assay [13] was inactive.
